Data from PubChem BioAssay AID504706 (National Center for Advancing Translational Sciences (NCATS), 2011).
In all, about 320,000 compounds went through this assay and about 200 (0.062%) were called active. The shares of active, inactive and inconclusive entries below differ from those in the screen. Calls come from the whole dose curve; as a rule, active = well fitted activation curve with a large enough effect; inconclusive = small, poorly fitted or top-dose-only effect; inactive = no such curve, though single readings can be large or run the other way. Potencies of inconclusive entries are left out as doubtful fits.

Assay: qHTS assay for re-activators of p53 using a Luc reporter; note: nearly all actives have a fitted effect of over 45% in size; for activity change, positive = activation: % of control where 0% means no effect
Conditions: H1299 p53-A138V BP100-luciferase reporter, luminescence, 24 h; series mostly up to 92.2 µM; activity change, positive = activation: at the top concentration
Method in brief: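 p53-null H1299 cells stably carrying temperature-sensitive p53-A138V and a BP100-luciferase reporter were pinned with compounds (4-point, 1:5 series) and held 24 hrs at 37 deg C. Luminescence was read 10 min after detection reagent.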
Potency is the fitted concentration of half-maximal effect; tags give direction and shape of the fitted curve.

Row | SMILES | Potency | activity change, positive = activation
1 | CCn1cnc2cc(NC(=O)c3ccco3)ccc21 | inconclusive [activator, full curve, poor fit] | –
2 | O=C(CN1C(=O)CC(c2ccco2)Sc2ccccc21)NCc1ccc2c(c1)OCO2 (configuration not stated) | – | inactive: -8.73%
3 | O=C(NNC(=O)c1ccc(-c2ccc([N+](=O)[O-])cc2)o1)c1ccncc1 | inconclusive [activator, single point] | –
4 | Cc1nc(NC(=O)c2cnccn2)ccc1Br | inconclusive [activator, full curve, poor fit] | –
5 | Cc1ccccc1OCC(=O)N/N=C/c1ccc2c(c1)OCCO2 | inconclusive [activator, partial curve, poor fit] | –
6 | Cc1ccc(-c2cc3nc(C)cc(NCc4ccco4)n3n2)cc1 | inconclusive [activator, full curve, poor fit] | –
7 | Cc1cc2nc(-c3ccc(SCc4ccccc4C#N)nc3)[nH]c2cc1C | inconclusive [activator, single point] | –
8 | OC(CNCC1COc2ccccc2O1)COc1ccc(Cl)cc1 (configuration not stated) | inconclusive [activator, single point] | –
9 | Cc1ccc(/C=N/NC(=O)c2ccc(Br)o2)s1 | inconclusive [activator, partial curve, poor fit] | –
10 | Cc1csc2nc(COC(=O)c3cccc(N(C)C)c3)cc(=O)n12 | inconclusive [activator, partial curve, poor fit] | –
11 | O=C(NCc1ccco1)C(=O)NCc1ccccc1Cl | inconclusive [activator, full curve] | –
12 | COc1ccc2cnn(-c3ccccc3)c(=O)c2c1OC | inconclusive [activator, single point] | –
13 | N#CC1=C(SCC(=O)Nc2ccccc2)NC(=O)CC1c1ccc(O)cc1 (configuration not stated) | inconclusive [activator, partial curve, poor fit] | –
14 | COc1cccc(/C=N/NC(=O)c2cc(-c3ccccn3)nc3ccccc23)c1O | inconclusive [activator, partial curve, poor fit] | –
15 | O=C(NC1CCCCC1)c1ccc(N2CCCC2=O)cc1 | inconclusive [activator, partial curve, poor fit] | –
16 | COc1ccc(C(=O)NNC(=S)NC(=O)c2cc(-c3ccccc3)nc3ccccc23)cc1 | – | inactive: 5.47%
17 | Fc1ccc(C2=CC(c3ccc(Br)o3)n3ncnc3N2)cc1 (configuration not stated) | – | inactive: 5.41%
18 | S=C(NCCc1ccccc1)Nc1nccs1 | inconclusive [activator, full curve, poor fit] | –
19 | COc1cc(C(=O)NNC(=O)c2ccc3ccccc3n2)cc(OC)c1OC | inconclusive [activator, single point] | –
20 | Cc1nccn1CC(=O)N/N=C/c1ccc(O)c(O)c1 | inconclusive [activator, single point] | –
21 | C(=N\Nc1ccccn1)/c1ccc(N2CCOCC2)cc1 | – | inactive: 1.65%
22 | Cc1ccc(/C=C/C(=O)c2ccccc2)cc1 | inconclusive [activator, partial curve, poor fit] | –
23 | O=[N+]([O-])c1ccc(/C=N/NC(=S)Nc2ccccc2)o1 | inconclusive [activator, full curve, poor fit] | –

Row | SMILES | Potency | activity change, positive = activation
24 | O=C(CSCc1ccc(F)cc1)Nc1ccccc1 | inconclusive [activator, single point] | –
25 | COc1cc2c(cc1OC)CN(Cc1cccs1)CC2 | inconclusive [activator, full curve, poor fit] | –
26 | Cc1occc1C(=O)Nc1cccc2ccccc12 | inconclusive [activator, partial curve, poor fit] | –
27 | Cc1ccc(NC(=O)N(CCCN2CCOCC2)Cc2cc3cc4c(cc3[nH]c2=O)OCO4)cc1 | – | inactive: 16.6%
28 | CCSc1ccc(/C(N)=N/OC(=O)c2cccs2)cn1 | inconclusive [activator, single point] | –
29 | COCc1nnc(NC(=O)c2ccc(NC(C)=O)cc2)s1 | inconclusive [activator, partial curve, poor fit] | –
30 | O=C(/C=C/c1cccc(F)c1)OCC(=O)c1ccc[nH]1 | inconclusive [activator, partial curve, poor fit] | –
31 | O=C(Nc1ccc2c(c1)OCCO2)c1ccc(Cl)c(Cl)c1 | – | inactive: 15.7%
32 | Cc1cccc(S(=O)(=O)Nc2ccc(-c3nc4ccc(C)cc4s3)cc2)c1 | inconclusive [activator, partial curve, poor fit] | –
33 | CCCCNC(=O)[C@@](CC)(ONc1ccccc1C(F)(F)F)c1cccc2ccccc12 | inconclusive [activator, single point] | –
34 | Cc1cc(OCc2cc(C(=O)N3CCCCCC3)no2)cc(C)c1Cl | inconclusive [activator, partial curve, poor fit] | –
35 | Cn1c(C(C#N)C(=O)c2ccco2)nc2ccccc21 (configuration not stated) | – | inactive: 23.9%
36 | CCCCc1ccc(NC(=S)NCc2cccs2)cc1 | inconclusive [activator, partial curve, poor fit] | –
37 | CCCCOC(=O)Sc1nc2ccccc2o1 | inconclusive [activator, partial curve, poor fit] | –
38 | CCN(CC)c1ccc(S(=O)(=O)N2CCOCC2)cc1NC(=O)c1cc(=O)c2ccccc2o1 | inconclusive [activator, single point] | –
39 | COc1ccccc1Nc1nc2c(s1)CCC2 | inconclusive [activator, partial curve, poor fit] | –
40 | c1csc(CNc2ccc3c(c2)OCCO3)c1 | inconclusive [activator, partial curve] | –
41 | O=C(Nc1ccc(F)c([N+](=O)[O-])c1)c1cccs1 | inconclusive [activator, partial curve, poor fit] | –
42 | CC(Oc1ccccc1Br)C(=O)N1CCc2ccccc21 (configuration not stated) | inconclusive [activator, single point] | –
43 | O=C(N/N=C/c1ccc(Cl)c([N+](=O)[O-])c1)C1CC1 | inconclusive [activator, single point] | –
44 | Clc1ccc(CNC2CCCC2)c(Cl)c1 | – | inactive: 1.19%
45 | COc1ccc2[nH]c3c(=O)n(CCCC(=O)NC4CCCCC4C)c(=S)[nH]c3c2c1 (configuration not stated) | – | inactive: -2.52%
46 | O=C1C=C(c2cccc(Cl)c2O)C[C@@H](c2ccc3c(c2)OCO3)C1 | – | inactive: -14.9%

Row | SMILES | Potency | activity change, positive = activation
47 | COc1ccc(-c2cn3c(n2)CCC3)cc1 | inconclusive [activator, full curve, poor fit] | –
48 | Cc1c(C(=O)NC2CCCC2)oc2ccccc12 | inconclusive [activator, full curve, poor fit] | –
49 | O=C(Nc1ccc(N2CCOCC2)c(Cl)c1)c1ccc(Br)o1 | inconclusive [activator, full curve, poor fit] | –
50 | COC(=O)CNC(=O)COC(=O)/C=C/c1ccc2ccccc2n1 | inconclusive [activator, single point] | –
51 | Cc1cc(Br)ccc1NC(=O)CN(C)C(=O)c1ccc2ccccc2n1 | inconclusive [activator, full curve, poor fit] | –
52 | CC(CC(=O)N1CCc2ccccc21)n1cccn1 (configuration not stated) | inconclusive [activator, partial curve, poor fit] | –
53 | CN(C(=O)c1ccc(NC(=O)Cc2cccc(NC(=O)C3CCN(C(=O)CCc4ccccc4)CC3)c2)cc1)C1CCCC1 | inconclusive [activator, single point] | –
54 | COCCNC(=O)/C(C#N)=C/c1cccc(NC(=O)c2ccccc2Cl)c1 | inconclusive [activator, single point] | –
55 | CC(=C/c1ccccc1)/C=N/NC(=O)c1cccs1 | inconclusive [activator, full curve, poor fit] | –
56 | O=C(CC1SC(=O)N(c2ccccc2)C1=O)Nc1ccccc1 (configuration not stated) | inconclusive [activator, single point] | –
57 | COc1ccc(CC(=O)N(CC2CCCO2)c2nc3ccccc3s2)cc1 (configuration not stated) | inconclusive [activator, partial curve] | –
58 | O=C(Nc1nc2ccccc2s1)c1cc(-c2ccccc2)nn1-c1ccccc1 | inconclusive [activator, partial curve, poor fit] | –
59 | CCN(CC(=O)Nc1ccc2c(c1)OCCO2)C(=O)c1ccc(Cl)cc1Cl | inconclusive [activator, partial curve, poor fit] | –
60 | O=c1c2ccccc2c(=O)n2n1Cc1ccccc1C2 | inconclusive [activator, single point] | –
61 | CN1CCc2cccc3c2[C@@H]1Cc1ccc(O)c(O)c1-3 | – | inactive: -5.21%
62 | CN(CCc1ccccn1)C(=O)Nc1ccc(F)cc1 | – | inactive: 7.9%
63 | C=CCn1c(=N)n(CC(O)COc2ccccc2OC)c2ccccc21 (configuration not stated) | inconclusive [activator, single point] | –
64 | Cc1nn(-c2ccccc2)c(Cl)c1/C=N/NC(=O)OC(C)(C)C | inconclusive [activator, partial curve, poor fit] | –
65 | COc1ccc2sc(N(CCN(C)C)C(=O)/C=C/c3cccs3)nc2c1 | – | inactive: 2.45%
66 | O=C(O)CSc1nnc(CSc2nc3ccccc3s2)n1-c1ccccc1 | – | inactive: 0.0233%
67 | Cc1c(/C(O)=C2/C(=O)C(=O)N(Cc3cccnc3)C2c2cccs2)cnn1-c1ccccc1 (configuration not stated) | inconclusive [activator, partial curve, poor fit] | –
